According to PubChem BioAssay AID488969 (Vanderbilt High Throughput Screening Facility, 2010):
The full ranking holds about 110,000 compounds; the median of “z-score” is about -0.1, and the highest 2% start at about 2. The list shows a part of the results. Calls of active or inactive are those of the source.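 The calls were made as follows: active = z-score in the third read window above 3 or below -3; inactive = the rest.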

biological target: Metabotropic glutamate receptor 8 (Rattus norvegicus) (UniProt P70579); experiment: rat mGluR8 modulators via GIRK flux, primary screen, cell-based, thallium flux, HTS (AID 488969); conditions: HEK293 rat mGluR8, GIRK (G protein-gated inwardly rectifying potassium channel) thallium flux, FluoZin2; at 10 µM; stronger effect = higher value; submaximal glutamate (EC20) added with thallium
Sequence of UniProt P70579 (P70579 whole entry, looked up): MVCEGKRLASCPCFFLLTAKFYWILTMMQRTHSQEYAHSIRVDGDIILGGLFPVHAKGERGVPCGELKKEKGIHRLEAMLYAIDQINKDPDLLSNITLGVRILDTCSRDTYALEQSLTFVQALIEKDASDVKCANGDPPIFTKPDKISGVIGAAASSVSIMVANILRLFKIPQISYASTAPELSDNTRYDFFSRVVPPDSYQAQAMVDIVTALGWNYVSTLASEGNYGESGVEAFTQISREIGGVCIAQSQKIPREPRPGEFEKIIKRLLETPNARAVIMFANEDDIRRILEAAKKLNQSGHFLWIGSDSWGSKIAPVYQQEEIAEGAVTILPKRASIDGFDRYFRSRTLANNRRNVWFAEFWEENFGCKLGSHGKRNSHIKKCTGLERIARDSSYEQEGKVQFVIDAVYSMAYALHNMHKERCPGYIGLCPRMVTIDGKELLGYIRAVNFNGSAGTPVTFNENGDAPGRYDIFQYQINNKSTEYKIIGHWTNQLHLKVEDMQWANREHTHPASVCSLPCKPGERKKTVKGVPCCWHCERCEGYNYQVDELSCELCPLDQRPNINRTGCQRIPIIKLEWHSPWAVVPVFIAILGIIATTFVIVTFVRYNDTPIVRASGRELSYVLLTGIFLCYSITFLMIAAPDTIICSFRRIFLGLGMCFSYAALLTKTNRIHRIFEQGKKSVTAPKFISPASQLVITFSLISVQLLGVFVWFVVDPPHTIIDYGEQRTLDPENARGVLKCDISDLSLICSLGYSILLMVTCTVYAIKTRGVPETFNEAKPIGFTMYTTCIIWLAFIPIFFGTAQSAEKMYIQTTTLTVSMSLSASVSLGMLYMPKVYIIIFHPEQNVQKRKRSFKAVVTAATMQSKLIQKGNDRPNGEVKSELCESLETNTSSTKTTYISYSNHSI

| Structure (SMILES) | z-score |
| --- | --- |
| CCCCCNC1=CC(=O)CC(c2ccccc2)C1 (stereo not given) | -0.123 |
| Fc1ccc(Cn2ccc(-c3cnc(-c4ccccc4)s3)n2)cc1 | -0.508 |
| Nc1c(-c2ccc(Cl)cc2)cnn1C1CCS(=O)(=O)C1 (stereo not given) | -0.761 |
| CCOc1ccc(CN(C(=O)c2cc3ccccc3oc2=O)C2CC2)cc1 | -0.506 |
| CCOc1cccc2sc(=NC(=O)c3ccc(S(=O)(=O)N4CCOCC4)cc3)n(C)c12 | 0.0157 |
| CCOC(=O)N1CCN(CC(O)c2ccc3c(c2)CCN3)CC1 (stereo not given) | -0.451 |
| COC(=O)c1[nH]c2cc(OC)c(OC)cc2c1NC(=O)c1cccc(OC)c1 | 0.269 |
| Cc1ccc(S(=O)(=O)/N=C2/NC(=O)/C(=C/c3ccncc3)S2)cc1 | -0.504 |
| Cc1ccc2c(c1)C(c1ccncc1)=NNC(c1ccc(C(C)C)cc1)=N2 | 0.622 |
| CCNC(=O)CC1C(=O)N(c2ccc(C)cc2)C(=O)N1CCc1ccc(OC)c(OC)c1 (stereo not given) | 0.0518 |
| Cc1cc(N2C(=O)C(=O)/C(=C(/O)c3ccc(Cl)cc3)C2c2cccc(Br)c2)no1 (stereo not given) | -0.652 |
| O=C(c1noc2c1CCCC2)N1CCOCC1 | -0.189 |
| Cc1cc(C)c2c(n1)sc1c(N3CCN(CCO)CC3)ncnc12 | -0.0957 |
| CN1C(=O)C(c2nnc(Nc3cccc4ccccc34)s2)C2CC1(C)Oc1ccccc12 (stereo not given) | -0.206 |
| Cn1c(=NC(=O)c2ccccc2[N+](=O)[O-])sc2cc(S(C)(=O)=O)ccc21 | -0.0581 |
| Cc1ccc(OCC(O)Cn2c3ccccc3c3ccccc32)cc1 (stereo not given) | -0.222 |
| Cc1cc(N)n(-c2ncnc3scc(-c4ccccc4)c23)n1 | 0.373 |
| CC(C)(C)c1ccc(S(=O)(=O)NCC(=O)Nc2ccc(-c3nc4ccccc4s3)cc2)cc1 | -0.0736 |
| Fc1ccc2nc(-c3ccccc3)nc(SCc3nnc(-c4ccccc4)o3)c2c1 | active: 14.3 |
| COCc1cc(C)nc2sc(C(=O)Nc3nccs3)c(N)c12 | 0.558 |
| NS(=O)(=O)c1ccc(NCc2ccccc2OCc2ccc(F)cc2)cc1 | -0.691 |
| CCOc1cc(C(=O)Nc2cccc3ncccc23)cc(OCC)c1OCC | -0.0792 |

| Structure (SMILES) | z-score |
| --- | --- |
| Cc1cc(OC(=O)N2CCOCC2)cc(C)c1Cl | 0.692 |
| O=C(NC1CCCCC1)c1cccnc1C(=O)O | 0.678 |
| NC(=O)C1CCN(C(=O)CN2CCCc3ccccc32)CC1 | -0.124 |
| COc1cc([N+](=O)[O-])ccc1NC(=O)CCCOc1cccc(C)c1C | -0.06 |
| COc1ccc(OC)c(Nc2nc(-c3sc(NC(=O)C(C)(C)C)nc3C)cs2)c1 | -0.237 |
| Cc1cc(C#N)c(C)n1-c1cc(S(=O)(=O)N2CCOCC2)ccc1N1CCCC1 | 0.38 |
| Cc1cc(C)n(C(=O)CCNC(=O)c2ccccc2Br)n1 | -0.384 |
| COCCCn1c(SCC(=O)NC(C)(C)C)nnc1-c1ccccc1 | 0.863 |
| Clc1ccc(C(c2nnnn2C2CCCC2)N2CCN(c3nc4ccccc4s3)CC2)cc1 (stereo not given) | -0.252 |
| Nc1scc2c(C(=O)N/N=C/c3ccc(Cl)cc3)nn(-c3ccccc3)c(=O)c12 | -0.086 |
| CCC(c1nnc(SCc2nc3ccccc3s2)n1Cc1ccccc1)N(C)C (stereo not given) | -1.18 |
| COc1cc(S(=O)(=O)n2c(C)nc3ccccc32)ccc1F | 0.0756 |
| O=C(Nc1ccccc1Cl)c1cccc(COc2cc(Cl)ccc2Cl)c1 | -0.0327 |
| O=C(O)c1cccnc1Sc1ccccc1 | 0.0247 |
| CN(C)c1ccc(/C=N/NC(=O)CN2CCN(c3ccc(F)cc3)CC2)cc1 | -0.219 |
| C/C(Cn1nc([N+](=O)[O-])cc1C)=N\NC(=O)c1ccc(C(C)(C)C)cc1 | -0.0524 |
| COc1nc(OC)nc(N2CCC(NC(=O)C(Cc3ccc(C(C)C)cc3)NC(C)=O)CC2)n1 (stereo not given) | -0.492 |
| COC(=O)c1ccc(C2/C(=C(\O)c3ccc4c(c3)OCCO4)C(=O)C(=O)N2CCCN(C)C)cc1 (stereo not given) | -0.191 |
| Cc1ccc(S(=O)(=O)n2cnc3cc([N+](=O)[O-])ccc32)cc1C | 2.81 |
| C/C(=N\Nc1cc(-c2ccccc2)nc(-c2ccc(Br)cc2)n1)c1cccc(N)c1 | -0.0597 |
| COc1ccc(-n2c(CSc3nc(C)cc(C)n3)nnc2SCC(=O)Nc2nccs2)cc1 | 0.17 |
| COc1cc2c(cc1OC)C(c1ccc(-c3ccc(Cl)c(Cl)c3)o1)=NCC2 | 0.559 |

| Structure (SMILES) | z-score |
| --- | --- |
| COc1ccccc1CNc1ccc(N2CCCCC2)cc1 | -0.109 |
| COc1ccccc1NC(=O)CCNC(=O)Cn1ccc2ccccc2c1=O | 0.17 |
| Cc1ccc(/C(O)=C2/C(=O)C(=O)N(CCN3CCOCC3)C2c2ccccn2)cc1 (stereo not given) | -0.0547 |
| CC1(c2ccccc2)NC(=O)N(CC(=O)Nc2ccc3c(c2)OCO3)C1=O (stereo not given) | 0.061 |
| CCOC(=O)[C@@H]1C(c2c(OC)cc(OC)cc2OC)=NO[C@@H]1C(=O)OCC | -0.405 |
| CCCCOc1ccc(C(=O)N/N=C/c2ccc(OCCN3CCCCC3)c(OC)c2)cc1 | -0.0807 |
| COC(=O)C1C(=O)/C(=C(/C)N2CCCC2)C(=O)CC1(C)C (stereo not given) | -0.0556 |
| N#C/C(=C\c1ccc(N2CCCC2)c([N+](=O)[O-])c1)c1nc2ccccc2[nH]1 | 0.221 |
| C#CCN(N(C)c1ncc(C(F)(F)F)cc1Cl)S(=O)(=O)c1ccc2ccccc2c1 | 0.398 |
| O=C(O)C12C[C@H]3C[C@@H](C1)CC(n1ncc(N4CCN(c5ccccc5)CC4)c(Cl)c1=O)(C3)C2 | -0.544 |
| Nc1ccc(C(=O)OCC(=O)Nc2cc([N+](=O)[O-])ccc2F)cc1 | 0.00777 |
| CCOC(=O)/C(N=Nc1ccc(Cl)cc1)=C(/O)c1ccc([N+](=O)[O-])cc1 | 0.205 |
| COc1ccc(OC)c(NC(=O)CSc2nc(N)c(-c3ccccc3)c(=O)[nH]2)c1 | -0.434 |
| CCOC(=O)N1CCN(C(=O)c2ccc(N3C(=O)CCC3=O)cc2)CC1 | 0.917 |
| CCN(CC)S(=O)(=O)c1cc(C(=O)Oc2cccc(-c3cnc4ccccc4n3)c2)ccc1Br | -0.242 |
| O=C(Nc1nnc(-c2ccc3c(c2)CCCC3)o1)C1COc2ccccc2O1 (stereo not given) | active: 7.22 |
| CCN(CC)C(=O)CSc1nc2ccccc2o1 | -0.0356 |
| CCN1C(=O)/C(=C/c2ccc(N3CCCC3)cc2)NC1=S | 1.3 |
| CCOc1ccc(Cn2nnc(C(=O)Nc3cc(OC)cc(OC)c3)c2N)cc1 | 0.25 |
| Cc1nc2ccccc2c2oc(C(=O)NCc3ccc4c(c3)OCO4)cc12 | -0.416 |
| O=C(NC1CCCC1)C(c1ccccn1)N(C(=O)c1csnn1)C1CCCC1 (stereo not given) | 0.0557 |
